Screen size: about 310,000 compounds; about 2,200 (0.71%) showed an effect of 50% or more. Effects have a minus sign here. This is one part of the list.
Molecular target: human ether-à-go-go-related gene (hERG) potassium channel (human, UniProt Q12809)
Assay: primary screen, population patch clamp on CHO cells stably expressing hERG

Sequence of human ether-à-go-go-related gene (hERG) potassium channel (Q12809 whole entry, looked up): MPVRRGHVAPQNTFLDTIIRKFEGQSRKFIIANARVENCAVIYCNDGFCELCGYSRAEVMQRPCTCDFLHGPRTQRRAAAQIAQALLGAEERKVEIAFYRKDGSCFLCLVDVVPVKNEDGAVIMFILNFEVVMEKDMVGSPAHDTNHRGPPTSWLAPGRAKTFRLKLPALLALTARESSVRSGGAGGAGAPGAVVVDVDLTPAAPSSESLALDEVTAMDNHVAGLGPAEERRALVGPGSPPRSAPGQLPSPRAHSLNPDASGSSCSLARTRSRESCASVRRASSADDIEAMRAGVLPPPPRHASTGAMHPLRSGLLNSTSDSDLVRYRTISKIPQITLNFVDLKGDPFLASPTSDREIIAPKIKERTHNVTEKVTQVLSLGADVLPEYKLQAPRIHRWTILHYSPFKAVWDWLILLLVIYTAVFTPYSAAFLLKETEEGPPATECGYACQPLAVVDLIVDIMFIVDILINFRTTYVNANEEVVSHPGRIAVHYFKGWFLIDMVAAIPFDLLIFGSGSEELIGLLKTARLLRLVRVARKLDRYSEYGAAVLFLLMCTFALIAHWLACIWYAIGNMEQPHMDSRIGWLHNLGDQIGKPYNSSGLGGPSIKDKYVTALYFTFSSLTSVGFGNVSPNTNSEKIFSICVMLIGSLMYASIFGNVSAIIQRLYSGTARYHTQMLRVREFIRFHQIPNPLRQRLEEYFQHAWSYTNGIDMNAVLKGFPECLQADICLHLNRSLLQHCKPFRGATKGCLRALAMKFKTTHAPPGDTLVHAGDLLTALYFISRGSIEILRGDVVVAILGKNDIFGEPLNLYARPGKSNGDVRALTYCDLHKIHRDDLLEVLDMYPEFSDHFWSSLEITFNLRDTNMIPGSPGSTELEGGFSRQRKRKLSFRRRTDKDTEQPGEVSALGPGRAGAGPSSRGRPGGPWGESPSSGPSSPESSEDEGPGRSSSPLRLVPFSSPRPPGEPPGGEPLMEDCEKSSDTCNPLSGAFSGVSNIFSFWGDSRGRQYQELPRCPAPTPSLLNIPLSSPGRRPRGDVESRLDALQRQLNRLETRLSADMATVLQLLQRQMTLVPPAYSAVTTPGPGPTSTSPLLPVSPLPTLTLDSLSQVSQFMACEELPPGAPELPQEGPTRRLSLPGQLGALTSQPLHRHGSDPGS

SMILES	hERG current change (%, negative = inhibition) at 1uM [%]
O=C(/C=C/c1c[nH]c2ccccc12)c1c(O)n(CCc2ccccc2)c(=O)[nH]c1=O	18.9
COc1cc(NC(=O)CSc2nc3ccccc3cc2C)c(C(=O)O)cc1OC	9.58
Cc1cccc(NC(=O)c2ccc3c(c2)CCN3S(C)(=O)=O)c1	12.7
COc1ccc(CNC(=O)CN2C(=O)C(c3ccccc3)Oc3cccnc32)cc1 (stereo not drawn)	-0.864
Cn1cnnc1SCC(=O)Nc1nc(-c2ccc(F)cc2)cs1	12.2
COc1ccc(CCNC(=O)C2CCCN(C(=O)N(C)C)C2)c(OC)c1 (stereo not drawn)	12.5
Cn1c(SCC(=O)c2ccc3c(c2)OCO3)nnc1-c1ccccn1	7.92
Cc1cc(N2CCN(C(=O)c3ccco3)CC2)n2ncc(-c3ccccc3)c2n1	-8.34
CCc1cc2cc(C(=O)Nc3ccccc3F)sc2s1	-4.09
CCN(CC)C(=O)Cn1c(=O)n(-c2ccccc2)c(=O)c2sccc21	9.95
OC(c1ccccn1)C1CCN(Cc2nc(C(c3ccccc3)c3ccccc3)no2)CC1 (stereo not drawn)	-5.42
O=C(NCCN1CCCCC1)c1ccc(F)cc1Cl	18.7
COc1ccc(N2CCN(C(=O)COC(=O)Cc3ccc(F)cc3)CC2)cc1	3.73
CCc1nn(CCCC(=O)N2CCc3ccccc3C2)c(=O)c2cc3occc3n12	-1.94
CCN(CC)CCCNC(=O)Cn1cc2c(n1)CCC(C)C2 (stereo not drawn)	9.02
CC1=C(C(=O)OC(C)C)C(c2cccs2)N2C(=O)CCSC2=N1 (stereo not drawn)	0.598
Cc1ccc(-n2nnc(-c3cccnc3)n2)cc1	11
OCCC1CN(Cc2cc3ccccc3o2)CCN1Cc1ccc(F)cc1 (stereo not drawn)	15.2
CCOC(=O)Nc1sc(=S)n(C)c1C	4.12
CCOC(=O)C(C(=O)OCC)=C1OC(=O)c2ccccc21	3.66
COC(=O)c1cc(Br)ccc1NC(=O)Nc1ccc(C)cc1	9.97
O=C(CCS(=O)(=O)c1ccccc1)NCc1ccccc1	5.37
c1ccc(CNc2cnccn2)cc1	-3.35

SMILES	hERG current change (%, negative = inhibition) at 1uM [%]
O=C(COc1ccc(S(=O)(=O)N2CCOCC2)cc1)N1CCOCC1	8.17
CCc1cc2c(=O)c(-c3cscn3)coc2cc1O	4.59
COCCNCC(=O)Nc1ccc(OC(F)(F)F)cc1.Cl	-13
CCN(CC(=O)NCc1ccc(F)cc1)Cc1cc(=O)n2ccsc2n1	12.8
CC(NC(=O)c1ccccc1Br)c1nnc(SCC(=O)NC2=NCCS2)n1C (stereo not drawn)	12.6
O=C(CSc1nc(-c2cccs2)cc(C(F)(F)F)n1)NCc1ccccc1	3.12
CCC1CCCCN1S(=O)(=O)c1ccc2c(c1)CCN2C(=O)C1CCC1 (stereo not drawn)	5.13
COc1ccc(/C=N/NC(=O)c2cnccn2)cc1O	3.05
O=C(Nc1ccc(N2CCCC2)cc1)C(c1ccccc1)c1ccccc1	11.5
CC(=O)Nc1ccc(S(=O)(=O)N(C)S(=O)(=O)c2ccc(F)cc2)cc1	-19.4
COc1cccc(/C=C2\CCCCC2=O)c1	13.3
O=C(CN1C(=O)c2ccccc2C1=O)Nc1ccccc1C(=O)NC1CCCCCC1	6.73
CCCCCCn1c(N)c(C#N)c2ccc([N+](=O)[O-])cc2c1=O	21.1
CC12CC3(C)CC(C)(C1)CC(C(=O)NC(=S)N1CCOCC1)(C2)C3	5.29
Cc1cccc2cc(-c3nc4ccc(C(=O)O)cc4[nH]3)c(=O)oc12	7.84
O=C(O)C1CCC(c2ccc(-c3ccccc3)cc2)CC1 (stereo not drawn)	-0.992
Cc1ccc(S(=O)(=O)NN2C(=O)/C(=C/c3cccs3)SC2=S)cc1	0.665
COc1cccc(CN2CCC(n3nccc3NC(=O)CCOc3ccccc3)CC2)c1	-26.2
O=C(CCCCCN1C(=O)c2cccc3cccc(c23)C1=O)NCCCO	11.9
Cc1cc(C(=O)NNCc2ccccc2)no1	0.722
CCOC(=O)Cn1c(C(=O)OCC)cc2sccc21	12.7
CCCCn1c(SCC(=O)c2ccc3c(c2)OCCO3)nnc1-c1ccco1	1.92
Cc1ccc(C)c(NC(=O)CSc2nnc(CNC(=O)c3cccs3)o2)c1	6.04

SMILES	hERG current change (%, negative = inhibition) at 1uM [%]
O=C(CCC(=O)N1CCN(Cc2ccccc2)CC1)Nc1nnc(C2CCCCC2)s1	13.6
CN(C(=O)CC1C(=O)NCCN1Cc1ccc(F)c(F)c1)C1CCOCC1 (stereo not drawn)	17
CSc1ccccc1OCc1cc(C(=O)NCCn2ccnc2C)no1	2.35
Cc1ccc(S(=O)(=O)N2CCCCC2)cc1NC(=O)CNc1ccc(C(F)(F)F)cc1	6.44
O=C(O)[C@@H]1CCCN1S(=O)(=O)c1cccc2cccnc12	16.2
CN(C)c1ccc(/C=C/C(=O)c2ccc(C(C)(C)C)cc2)cc1[N+](=O)[O-]	7.35
CCOC(=O)C1=C(c2ccccc2)NC(=O)NC1c1ccc(O)c(OCC)c1 (stereo not drawn)	17.2
COCCn1c(SCC(=O)N2CCC(C)CC2)nc2ccccc2c1=O	-57.9
O=C(Oc1ccc(C(=S)N2CCC(O)CC2)cc1)c1ccc(Cl)cc1	-0.343
CC1=C(C(=O)O)N2C(=O)C(NC(=O)c3nn(C)c(C)c3Cl)C2SC1 (stereo not drawn)	11.3
O=C(NCC1(c2ccccc2)CCCC1)c1ccccc1	8.99
Cc1ccc(C(=O)OCC(=O)Nc2ncc(C(F)(F)F)cc2Cl)cc1NC(=O)c1ccco1	-41.7
COc1ccc(S(=O)(=O)Nc2cccc(-c3ccc(N4CCCCCC4)nn3)c2)c(OC)c1	13.4
CCOC(=O)CC(=O)N/N=C/c1c(N)n(C)c(=O)n(C)c1=O	-15.9
CCN1CCN(C(=O)Cc2coc3cc(C)cc(C)c23)CC1	2.98
O=C(COC(=O)CCCSc1nc2ccccc2[nH]1)Nc1ccc(Cl)cc1	-4.28
CN(C)C(CNC(=O)c1ccc(C(=O)c2ccccc2)cc1)c1ccccc1 (stereo not drawn)	11.9
CCOC(=O)CCCCC(=O)NC(CO)C(=O)NC (stereo not drawn)	8.11
CC1CCCN(Cc2cnc(Cl)s2)C1 (stereo not drawn)	14.1
O=C(N=C1c2ccccc2CN1c1ccc(F)c(F)c1)c1cccnc1	8.47
Br.N=c1n(CC(=O)c2cccc([N+](=O)[O-])c2)c2ccccc2n1Cc1ccccc1	-2.49
N#C/C(=C(/O)c1cc2ccccc2o1)c1nc2ccccc2s1	11.2
CCCN1CCC(NC(=O)Nc2cccc3ccccc23)CC1	7.09

SMILES	hERG current change (%, negative = inhibition) at 1uM [%]
O=C(c1ccccc1Cl)N1CCNCC1	15.9
NCCNc1ccc(C(=O)N2c3ccccc3Sc3ccccc32)cc1[N+](=O)[O-]	11.6
COc1cc(/C=N/NC(=O)C2CC(=O)N(c3ccc(C)cc3)C2)cc(OC)c1OC (stereo not drawn)	15.5
O=C(Nc1cccc2ccccc12)c1onc2c1CCCC2	6.48
Cc1ccccc1COC(=O)c1nn(-c2ccccc2)nc1N	8.78
COc1ccc(-c2cc(CC3(C(=O)O)CCN(C(=O)OC(C)(C)C)CC3)on2)c(OC)c1	9
CCOC(=O)c1cc(C)sc1NC(=O)CCC(=O)O	-0.629
CC(C(=O)O)N1C(=O)C2C3CC(C2C1=O)C1C(c2ccccc2)c2sc(=O)[nH]c2SC31 (stereo not drawn)	16.1
CC(C)(C)c1ccc(C(=O)C2CCCN(Cc3ccon3)C2)cc1 (stereo not drawn)	14.6
COCCOC(=O)C1=C(C)NC(=O)N(C(C)=O)C1c1ccc(Cl)cc1 (stereo not drawn)	11.7
Fc1ccc(C2CC(c3ccccc3)n3ncnc3N2)cc1 (stereo not drawn)	-1.41
Cc1cnc(NC(=O)c2cccs2)s1	12.9
CCOc1ccc(C2C(C(=O)c3ccco3)=C(O)C(=O)N2CCCn2ccnc2)cc1OCC (stereo not drawn)	10.1
CN(CC(=O)Nc1ccccc1Cl)C(=O)COC(=O)CN1C(=O)NC2(CCCC2)C1=O	15.3
CCC(=O)NNc1nc2c(Cl)cccc2s1	8.56
CCCc1nc2oc3ccccc3c(=O)c2c(=O)n1-c1ccc(C)cc1	13.9
O=S(=O)(c1ccc(F)cc1)N1CCN(S(=O)(=O)c2cc(F)ccc2F)CC1	7.97
COc1ccccc1-n1cnnc1SC(C)C(=O)Nc1ccc(NC(C)=O)cc1 (stereo not drawn)	7.06
Cc1cccc(OCC(=O)Nc2cccc(O)c2)c1	2.59
COc1ccc(OC)c(C(=O)c2oc3ccccc3c2NC(C)=O)c1	-1.97
COc1cc(/C=C2/SC(=S)N(Cc3ccccc3)C2=O)cc(Cl)c1O	6.86

— publication PMC4336329 (PLoS ONE, 2015)
